Assay results as given in paper PMC4336329 (PLoS ONE, 2015).
The campaign covered roughly 310,000 compounds. About 2,200 (0.71%) showed an effect of 50% or more. The effect is printed as a negative number. This is one part of the list.

These compounds were tested against human ether-à-go-go-related gene (hERG) potassium channel (human, UniProt Q12809) (assay: primary screen, population patch clamp on CHO cells stably expressing hERG).
Chain of human ether-à-go-go-related gene (hERG) potassium channel (Q12809 whole entry, looked up): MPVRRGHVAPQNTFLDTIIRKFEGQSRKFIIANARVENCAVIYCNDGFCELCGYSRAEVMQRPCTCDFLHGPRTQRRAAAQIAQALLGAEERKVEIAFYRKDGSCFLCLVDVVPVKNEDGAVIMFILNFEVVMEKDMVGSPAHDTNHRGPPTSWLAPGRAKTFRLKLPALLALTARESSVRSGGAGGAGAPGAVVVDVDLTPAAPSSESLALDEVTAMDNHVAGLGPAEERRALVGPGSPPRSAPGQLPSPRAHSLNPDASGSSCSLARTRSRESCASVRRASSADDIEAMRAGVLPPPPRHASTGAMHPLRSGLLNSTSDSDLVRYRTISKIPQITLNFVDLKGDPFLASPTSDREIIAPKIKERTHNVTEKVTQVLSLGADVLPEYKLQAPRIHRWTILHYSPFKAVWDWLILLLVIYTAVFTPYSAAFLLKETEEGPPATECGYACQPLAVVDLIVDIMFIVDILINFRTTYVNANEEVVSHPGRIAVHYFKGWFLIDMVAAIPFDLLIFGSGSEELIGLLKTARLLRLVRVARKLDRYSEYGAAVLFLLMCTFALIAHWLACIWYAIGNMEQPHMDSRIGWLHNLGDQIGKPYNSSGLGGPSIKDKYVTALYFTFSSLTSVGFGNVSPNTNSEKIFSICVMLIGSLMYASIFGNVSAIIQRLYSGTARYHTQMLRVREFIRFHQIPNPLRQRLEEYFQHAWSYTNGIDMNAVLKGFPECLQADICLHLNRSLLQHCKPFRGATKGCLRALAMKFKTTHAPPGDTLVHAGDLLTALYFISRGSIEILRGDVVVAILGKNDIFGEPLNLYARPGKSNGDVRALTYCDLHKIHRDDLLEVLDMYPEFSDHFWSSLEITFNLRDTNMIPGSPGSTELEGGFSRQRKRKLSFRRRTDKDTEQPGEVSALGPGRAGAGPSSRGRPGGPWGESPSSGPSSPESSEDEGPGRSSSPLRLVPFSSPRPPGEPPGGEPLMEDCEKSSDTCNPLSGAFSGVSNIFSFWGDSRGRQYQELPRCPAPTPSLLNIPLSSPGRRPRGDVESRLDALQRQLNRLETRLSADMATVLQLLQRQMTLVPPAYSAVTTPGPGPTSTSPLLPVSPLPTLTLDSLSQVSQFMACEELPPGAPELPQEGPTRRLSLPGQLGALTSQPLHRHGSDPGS

| SMILES | hERG current change (%, negative = inhibition) at 1uM [%] |
| --- | --- |
| CC(=O)Nc1cccc(C(=O)N2CCC(n3nccc3NC(=O)CC(C)C)CC2)c1 | -12.4 |
| O=C(c1cc(-c2cccs2)nc2ccccc12)N1CCN(S(=O)(=O)c2cccc(F)c2)CC1 | 11 |
| OCCNCc1ccc(OC2CCCC2)cc1 | 17.1 |
| Cc1cc(C)cc(NC(=O)CN2CCN(C(=O)C3CCCO3)CC2)c1 (stereo not drawn) | 8.76 |
| Clc1ccc(Br)cc1-c1nc(-c2ccncc2)no1 | 11 |
| CCN1C(=O)/C(=c2\sc3nc(=O)c(Cc4ccccc4)nn3c2=O)c2ccccc21 | 12.1 |
| CCOc1ccc(NC(=S)NC(=O)c2c(Br)cnn2C)c([N+](=O)[O-])c1 | 13.5 |
| O=C1NC2=C(C(=O)CCC2)C(c2ccc([N+](=O)[O-])cc2)N1 (stereo not drawn) | 13.3 |
| CC(=O)Nc1ccc(S(=O)(=O)N2c3ccccc3NC(=O)CC2C)c(Cl)c1 (stereo not drawn) | 15 |
| CSc1ccccc1NC(=O)Nc1ccccc1Cl | 10.5 |
| COc1cc(/C=C2/N=C(c3ccccc3)OC2=O)c(F)cc1OCc1ccccc1 | 14.3 |
| CC(=O)Nc1cccc(NC(=O)COc2nncc3ccccc23)c1 | 5.26 |
| S=c1nc[nH]c2c1[nH]c1ccc(Cl)cc12 | 11.5 |
| Cc1ccccc1-n1nc(C(=O)O)cc1-c1ccccc1 | 1.01 |
| CCC1CO/C(=C(\C(=C(Cl)Cl)N2CCOCC2)[N+](=O)[O-])N1 (stereo not drawn) | 8.01 |
| Cc1ccc(C2=NN(CC(=O)NCc3ccco3)C(=O)CC2)cc1 | -2.1 |
| O=C(NC1CCCN(Cc2ccccc2F)C1)c1cccs1 (stereo not drawn) | -3.65 |
| Cn1c2ccccc2c(=O)n2c(=O)c3ccccc3cc12 | -2.16 |
| O=C(CCn1cccc1)NCc1ccc2c(c1)OCO2 | 14.3 |
| CC(C)(C)NC(=O)/C=C/c1cccc(C(F)(F)F)c1 | 7.22 |
| Cc1cc(C)n2nc(SCC(=O)NC3CCCC(C)C3C)nc2n1 (stereo not drawn) | 17.8 |
| COc1ccc(CCN(C(=O)C(F)(F)F)C(C(=O)NC2CCCCC2)c2ccc(C)s2)cc1OC (stereo not drawn) | 20.5 |

| SMILES | hERG current change (%, negative = inhibition) at 1uM [%] |
| --- | --- |
| O=C(c1ccco1)N(CCC(c1ccccc1)c1ccco1)Cc1ccccc1 (stereo not drawn) | 4.3 |
| O=C1CCC(=O)N1c1ccc(NC2CCN(Cc3ccccc3)CC2)c([N+](=O)[O-])c1 | 9.1 |
| CCCCN(CCCC)S(=O)(=O)c1ccc(C(=O)Nc2nnc(COC)o2)cc1 | -1.96 |
| CC(=O)N1CCN(CC(=O)Nc2cc([N+](=O)[O-])ccc2Cl)CC1 | 1.54 |
| COc1cc(NC(=O)C2CC(=O)N(CCc3ccccc3)C2)cc(OC)c1 (stereo not drawn) | 9.18 |
| CCc1nnc(NS(=O)(=O)c2ccc(NC(=O)c3ccc(S(=O)(=O)N(CC)CC)cc3)cc2)s1 | 8.78 |
| Cc1nc2ccccc2n1C1CCN(Cc2nnnn2CCc2ccccc2)CC1.Cl | -33.3 |
| O=C(Cc1cc(=O)[nH]c(=O)[nH]1)NCc1ccc(Cl)cc1 | 12 |
| O=C(NC1CCCc2ccccc21)c1cc(Cl)ccn1 (stereo not drawn) | 17.8 |
| CC1CCCCN1S(=O)(=O)c1ccc(C(=O)Nc2nnc(-c3ccco3)o2)cc1 (stereo not drawn) | 6.76 |
| N#CC1=C(N)C(C#N)(C#N)[C@H](c2c(F)cccc2F)[C@H]2CC3(CC=C12)OCCO3 | -1.32 |
| COc1ccccc1C(=O)N/C(=C/c1ccc(Br)cc1)C(=O)NCC(=O)O | 5.89 |
| Cc1nc(C(=O)N(C)C)nn1-c1ccc([N+](=O)[O-])cc1 | 7.45 |
| CCOCC(=O)Nc1ccc(-c2cn3cccnc3n2)cc1 | -6.78 |
| COc1cc(OC)cc(-c2sc3ccc(OC)cc3c2C#CC(C)(C)O)c1 | 16.1 |
| CC(C)c1ccccc1OCC(=O)NN1C(=O)c2ccccc2C1=O | 13.3 |
| O=C(c1ccccc1)c1ccc(OCCO)cc1 | 17.7 |
| CCOC(=O)Cc1nn(C(C)C)c(=O)c2ccccc12 | 19 |
| CCCCCCSc1ccc(-c2nc3ccc(C)cn3c2NCc2ccccc2)cc1.O=C(O)C(F)(F)F | 11.1 |
| COc1ccccc1-c1nc(C(=O)NCC2CCCO2)cc2c1[nH]c1ccccc12 (stereo not drawn) | 6.04 |
| COc1ccc(-c2ccc(C#N)c(SCC(=O)NC3CC3)n2)cc1OC | 14.7 |
| N#C/C(=C/c1ccc(Sc2nc3ccccc3[nH]2)o1)c1ccccc1F | -0.974 |

| SMILES | hERG current change (%, negative = inhibition) at 1uM [%] |
| --- | --- |
| CCN(CC)C(=O)CSc1nc2c(sc(=S)n2-c2ccccc2)c(=O)n1-c1ccc(OC)c(OC)c1 | 9.98 |
| COc1ccc(CCNC(=O)Cc2cc(=O)[nH]c(=O)[nH]2)cc1OC | 0.979 |
| Cc1ccc(S(=O)(=O)N2CCN(C(=O)CSCc3ccc(C(C)C)cc3)CC2)cc1 | -0.929 |
| Cc1nn(CCOc2ccccc2)c(=O)n1-c1cccc(F)c1 | 5.48 |
| CCn1c(CNc2cccc(Cl)c2)nnc1SCC(=O)OC1CCCCC1 | -0.937 |
| O=C(O)CSc1nc(SCc2ccccc2Cl)nc2c1CCCC2 | 14.9 |
| Cc1nnc(NC(=O)CN2C(=O)NC3(CCCC3)C2=O)s1 | 14.6 |
| COc1cc(CCC(=O)OCC(=O)NCC2CCCCC2)cc(OC)c1OC | 6.32 |
| CCn1c(CSc2nc3ccccc3s2)nnc1SCC(=O)NCC(=O)OC | -5.24 |
| Cc1nc2c(C(=O)NCc3ccc4c(c3)OCO4)c[nH]n2c(=O)c1Cl | 1.43 |
| CCCc1cc(=O)oc2cc(C)cc(OCC(=O)NCC(O)c3ccccc3)c12 (stereo not drawn) | 13.5 |
| CCOC(=O)/C=C1\SCC(=O)N1CC(=O)NC(C)c1ccccc1 (stereo not drawn) | -0.731 |
| CCCn1nc2cc(C(=O)NCc3ccc(C)cc3)ccc2c1OCC | 13.7 |
| CCCc1cc(=O)oc2cc(OCC(=O)NC3CC(C)(C)NC(C)(C)C3)ccc12 | 14.3 |
| CN(Cc1ccccc1C#N)S(=O)(=O)c1cccs1 | 16 |
| CN1CCN(C(=O)C2=C[C@@H](c3coc4ccccc4c3=O)C[C@@H](OCCCCO)O2)CC1 | 10.8 |
| N#C/C(=C\c1ccc(-c2cccc([N+](=O)[O-])c2)o1)C(=O)Nc1nc(-c2cccs2)cs1 | 9.51 |
| O=C(Nc1cc2c(=O)n(-c3ccc(Oc4ccccc4)cc3)ccc2oc1=O)c1ccccc1 | 10.2 |
| CC1CCN(C(=O)C2CCN(S(=O)(=O)N3CCC4(CC3)OCCO4)CC2)CC1 | 19.8 |
| CCOc1ccc(-c2ccc(SCC(=O)Nc3nnc(CC)s3)nn2)cc1 | 19 |
| Cc1ccc(S(=O)(=O)Oc2ccc(/C=C3\N=C(c4cccc(C)c4)OC3=O)cc2)cc1 | 3.04 |
| CC(C)(C)c1ccc(C(=O)N2CCN(c3ccc(N4CCOCC4)nn3)CC2)cc1 | 1.65 |

| SMILES | hERG current change (%, negative = inhibition) at 1uM [%] |
| --- | --- |
| C=CCNC(=O)c1c(N)n(CCN2CCOCC2)c2nc3ccccc3nc12 | 5.58 |
| COC(=O)CCCC(=O)N(C)CC1CCCN(CCc2ccccc2C)C1 (stereo not drawn) | -12.7 |
| CCOC(=O)C1=C(CC)Nc2ccccc2N/C1=N\S(=O)(=O)c1ccccc1F | -1.17 |
| O=C(CSc1ccncc1)Nc1ccc(S(=O)(=O)Nc2nccs2)cc1 | 10.4 |
| O=C(NCc1ccccc1)c1ccc2ccccc2n1 | 20.1 |
| Cc1cc(C)cc(-n2c(C)cc(/C=N/NC(=O)CSc3ncccn3)c2C)c1 | 16.8 |
| Cc1ccc(NC(=O)CSc2nnc(Cc3csc(C)n3)o2)cc1 | 7.32 |
| Cc1nc(Nc2nc3ccccc3o2)nc(C)c1C(=O)Nc1ccc(F)cc1 | 5.93 |
| O=C(CC(c1ccccc1)c1ccccc1)NCC1CCCO1 (stereo not drawn) | 17.7 |
| Cc1ccc(CCNC(=O)C2CC(c3ccccc3C(F)(F)F)=NO2)cc1 (stereo not drawn) | 7.46 |
| O=C(/C=C/c1ccccc1)NCC(=O)N/N=C/c1cccs1 | -11.1 |
| O=C(O)CCCC(=O)Nc1cccc(-c2nc3ccccc3[nH]2)c1 | 18.9 |
| S=c1[nH]nc(-c2cc(-c3ccccc3)n[nH]2)n1/N=C/c1ccc(Cl)cc1 | 6.95 |
| COc1ccccc1N1CCN(C(=O)c2cc3cc(Br)ccc3oc2=O)CC1 | 6.77 |
| COc1ccc(F)cc1S(=O)(=O)N1CCC(C(N)=O)CC1 | 11.5 |
| COCCCNC(=S)N1CCN(S(=O)(=O)c2ccc(OC)cc2)CC1 | 6.33 |
| O=C(NCc1ccccn1)C1Nc2ccc(C(F)(F)F)cc2C2C=CCC12 (stereo not drawn) | 10.5 |
| CCCCCOC(=O)C1=C(C)NC(=O)NC1c1ccc(N(C)C)cc1 (stereo not drawn) | 10.3 |
| COc1ccc(Oc2c(C)oc3cc(OC(=O)N(C)C)ccc3c2=O)cc1 | 15 |
| CN(C)C(=O)c1cc(S(=O)(=O)N(C)C)c(Cl)cc1N1CCCC1 | 10 |
| CC1NC2(C(=O)N(Cc3ccccc3)c3ccccc32)C2C(=O)N(c3ccccc3)C(=O)C12 (stereo not drawn) | 11.7 |
